Assay results published in the supplement of paper PMC6135742.
Where a name gives a salt, the structure may show the parent alone. ± gives the standard deviation of the averaged measurements. In all, about 2,600 compounds were measured (“MBP+ mature oligodendrocyte number relative to DMSO vehicle control”: median about -0.34, highest 2% from about 13 on). This is one part of the list.

test system: jimpy (Plp1 jimpy) mouse iPSC-derived oligodendrocyte progenitor cells; assay: MBP+ mature oligodendrocyte number relative to DMSO vehicle control (SDs above negative control mean); higher = more surviving jimpy oligodendrocytes (rescue); details: 10 µM; 3 days
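Also: 10 µM single dose with 3-day oligodendrocyte differentiation.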

Row | SMILES | MBP+ mature oligodendrocyte number
1 | CN(C)CCOc1ccc(-c2nc(-c3ccncc3)c(-c3ccc4c(c3)CC/C4=N\O)[nH]2)cc1 | < -4.81
2 | CCCC(CCC)C(=O)O[C@H]1C[C@H]2CC[C@@H](C1)[N+]2(C)C [Anisotropine methyl bromide] | 32.5
3 | C[C@H](Cc1cc2c(c(C(N)=O)c1)N(CCCO)CC2)NCCOc1ccccc1OCC(F)(F)F [Silodosin] | < -5.15
4 | C/C(=C\C(=O)Nc1ccccc1C(=O)O)c1ccc2ccccc2c1 | -0.502
5 | O=C(c1ccc(/C=C/c2n[nH]c3ccccc23)cc1)N1CCNCC1 | -4.7
6 | Cc1cc(Cl)ccc1OCCCC(=O)NO [Droxinostat] | -1.14 ± 0.66
7 | O=C(NCCN1CCOCC1)c1ccc(Cl)cc1 | 2.56
8 | O=C(NCCN1CCOCC1)c1ccc(Cl)cc1 [Moclobemide] | 0.304
9 | Cc1ccc(-n2sc(=O)n(Cc3ccc(F)cc3)c2=O)cc1 | 1.37
10 | COc1c(C)c2c(c(O)c1C/C=C(\C)CCC(=O)O)C(=O)OC2 [Mycophenolic acid] | < -4.81
11 | O=C(Oc1ccccc1C(=O)O)c1ccccc1O [Sasapyrine] | 1.59
12 | CS(=O)(=O)c1ccc(-c2cnc(N)c(C(=O)Nc3ccccc3)n2)cc1 | -3.62
13 | NS(=O)(=O)c1cc(Cl)c(Cl)c(S(N)(=O)=O)c1 [Dichlorphenamide] | -0.108
14 | O=C(O)C1=CO[C@@H](O[C@@H]2O[C@H](CO)[C@@H](O)[C@H](O)[C@H]2O)[C@@H]2C(CO)=CC[C@H]12 [Geniposidic acid] | 0.171
15 | Cc1cc(Cn2cnc3c2C[C@@H](C(=O)O)N(C(=O)C(c2ccccc2)c2ccccc2)C3)ccc1N | -2.99
16 | CCCCCCC(=O)OC1CC(C)(C)NC(C)(C)C1 [TMPH hydrochloride] | 1.64
17 | Oc1cc2c(cc1O)CN(C(=S)NCCc1ccc(Cl)cc1)CCC2 [Capsazepine] | < -4.47
18 | Nc1nc(Cl)nc2c1ncn2[C@@H]1O[C@H](COP(=O)(O)OP(=O)(O)OP(=O)(O)O)[C@H](O)C1O (stereo not given in full) [2-Chloroadenosine triphosphate tetrasodium] | -0.282
19 | CN(C)Cc1cccc(N=C(c2ccccc2)c2c(O)[nH]c3cc(C(=O)N(C)C)ccc23)c1 | -4.61
20 | NC[C@@H](O)c1ccc(O)c(O)c1 [L(-)-Norepinephrine bitartrate] | 0.667
21 | COc1ccc2c(c1)c(CC(=O)N1CCOCC1)c(C)n2C(=O)c1ccc(Cl)cc1 | 1.06
22 | CNCCCC12CCC(c3ccccc31)c1ccccc12 [Maprotiline HCl] | < -4.81
23 | CNCCCC12CCC(c3ccccc31)c1ccccc12 [Maprotiline hydrochloride] | < -3.97

Row | SMILES | MBP+ mature oligodendrocyte number
24 | CCc1c(O)cc(O)c(C(=O)c2ccc(OCCN3CCOCC3)c(OC)c2)c1CC(=O)N(CCOC)CCOC | < -6.01
25 | CC[C@H]1OC(=O)C[C@@H](O)[C@H](C)[C@@H](O[C@@H]2O[C@H](C)[C@@H](O)[C@H](N(C)C)[C@H]2O)[C@@H](CCN2C[C@H](C)C[C@H](C)C2)C[C@@H](C)C(=O)/C=C/C(C)=C/[C@@H]1CO[C@@H]1O[C@H](C)[C@@H](O)[C@@H](OC)[C@H]1OC [Tilmicosin] | -5.51
26 | O=C1Cc2c([nH]c3ccc(Br)cc23)-c2ccccc2N1 [Kenpaullone] | -1.42
27 | Cc1coc2c1C(=O)C(=O)c1c-2ccc2c1CCCC2(C)C [Tanshinone IIA] | 0.451
28 | C[C@]12C=CC(=O)C=C1CC[C@H]1[C@@H]3C[C@@H](O)[C@](O)(C(=O)CO)[C@@]3(C)C[C@H](O)[C@@]12F [Triamcinolone] | -0.75 ± 2.8
29 | CC1(C)O[C@@H]2C[C@H]3[C@@H]4CCC5=CC(=O)CC[C@]5(C)[C@@]4(F)[C@@H](O)C[C@]3(C)[C@]2(C(=O)CCl)O1 [Halcinonide] | 8.94
30 | CCN(CC)C(=O)/C(C#N)=C/c1cc(O)c(O)c([N+](=O)[O-])c1 [Entacapone] | 3.04
31 | C[C@@H]1O[C@@H](OC[C@H]2O[C@@H](Oc3c(-c4ccc(OCCO)c(OCCO)c4)oc4cc(OCCO)cc(O)c4c3=O)[C@H](O)[C@@H](O)[C@@H]2O)[C@H](O)[C@H](O)[C@H]1O [Troxerutin] | 0.787
32 | CCCCCCCC/C=C\CCCCCCCC(=O)NCCO [N-Oleoylethanolamine] | -0.715
33 | C[C@@H](O)[C@H]1C(=O)N2C(C(=O)O)=C(S[C@@H]3CN[C@H](C(=O)N(C)C)C3)[C@H](C)[C@H]12 [Meropenem] | 1.94
34 | CC(=O)O[C@H]1C[C@@H]2CC[C@@H]3[C@H](CC[C@@]4(C)[C@H]3C[C@H]([N+]3(C)CCCCC3)[C@@H]4OC(C)=O)[C@@]2(C)C[C@@H]1N1CCCCC1 [Vecuronium Bromide] | 2.47
35 | NC(CCCP(=O)(O)O)C(=O)O (stereo not drawn) [D(-)-2-Amino-5-phosphonopentanoic acid] | -1.43
36 | C#C[C@]1(O)CC[C@H]2[C@@H]3CCc4cc(O)ccc4[C@H]3CC[C@@]21C [Ethinyl Estradiol] | 0.433
37 | O=C(O)c1ccc(N2C(=O)/C(=C\c3ccc(-c4ccc([N+](=O)[O-])cc4)o3)C=C2c2ccccc2)cc1 | 2.49
38 | O=S(=O)(c1ccccc1)N(CC(F)(F)F)c1ccc(C(O)(C(F)(F)F)C(F)(F)F)cc1 | 4.38
39 | CCOC(=O)C1=C(C)NC(C)=C(C(=O)OCC)C1c1ccccc1/C=C/C(=O)OC(C)(C)C [Lacidipine] | -4.16
40 | Cn1c(=O)n(-c2ccc(C(C)(C)C#N)cc2)c2c3cc(-c4cnc5ccccc5c4)ccc3ncc21 [BEZ235 (NVP-BEZ235, Dactolisib)] | < -6.7
41 | O=C(O)C(Cc1c[nH]c2ccccc12)N1C(=O)c2ccccc2C1=O (stereo not given) | 1.77
42 | CCOc1cc(CC(=O)N[C@@H](CC(C)C)c2ccccc2N2CCCCC2)ccc1C(=O)O [Repaglinide] | 1.77
43 | CC1(C)CCC[C@]2(C)[C@H]3CC(=O)O[C@]3(C)CC[C@@H]12 [Sclareolide] | 5.37
44 | COc1c(N2C[C@@H]3CCCN[C@@H]3C2)c(F)cc2c(=O)c(C(=O)O)cn(C3CC3)c12 [Moxifloxacin HCl] | -0.676
45 | COc1ccc(C(=O)CC(=O)c2ccc(C(C)(C)C)cc2)cc1 [Avobenzone] | 0.0731
